Assay results from PubChem BioAssay AID504845 (National Center for Advancing Translational Sciences (NCATS), 2011).
Where “and” joins values, the source holds several entries; their conditions need not be identical. Equal values may be shown once. Screen size: about 390,000 compounds; about 150 (0.038%) were called active. Inconclusive results, whose numbers are uncertain, are shown with a selection of clear calls. Calls follow the shape of the dose curve; as a rule, active = well fitted inhibition curve with a large enough effect; inconclusive = small, poorly fitted or top-dose-only effect; inactive = no such curve, though single readings can be large or run the other way. Potencies beside an inconclusive call are fits to weak or partial responses and may not hold up. Some structures have more than one record in an assay (separate samples or runs), and their calls can disagree.

Biological target: Regulator of G-protein signaling 4 (Homo sapiens) (UniProt P49798)
Assay: Inhibitors of Regulator of G Protein Signaling (RGS) 4: qHTS; also: nearly all actives have a fitted effect of over 75% in size
Details: Transcreener GDP fluorescence polarization, RGS4-accelerated GTP hydrolysis; series mostly up to 114 µM; activity change, negative = inhibition: at the top concentration
Method in brief: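 MLSMR compounds (23 nl, pin-transferred) preincubated 10 min at room temperature with a 500nM (2x) first reagent, then RGS4 at 900nM (2x) plus Transcreener GDP mix added; fluorescence polarization (620/688 nm) read before and after 90 min at 30 °C.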
% is scaled to controls: 0 for no effect and ±100 for the full control effect; potency is read from the fitted curve at half-maximal effect; tags tell the direction and shape of the fitted curve.

Chain of UniProt P49798 (P49798 whole entry, looked up): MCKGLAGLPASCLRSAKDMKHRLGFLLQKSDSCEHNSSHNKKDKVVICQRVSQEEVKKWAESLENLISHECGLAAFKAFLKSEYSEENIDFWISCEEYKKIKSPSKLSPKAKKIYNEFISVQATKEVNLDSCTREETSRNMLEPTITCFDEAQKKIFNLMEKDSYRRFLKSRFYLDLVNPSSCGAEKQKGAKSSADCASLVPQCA

Row | Compound | Potency | activity change, negative = inhibition
1 | CCN1C(=O)/C(=C/c2ccc3c(c2)CCN3CCCCl)C(=O)NC1=S | inconclusive: 39.8 µM [inhibitor, partial curve, poor fit] | 
2 | CN1CCN(c2ccc(N)cc2)CC1 | inconclusive: 79.4 µM [inhibitor, partial curve, poor fit] | 
3 | Cc1ccc(NC(=O)Cn2c(=O)oc3ccccc32)cc1C | inconclusive: 100 µM [inhibitor, partial curve, poor fit] | 
4 | CCC(C)N1C(=O)/C(=C\c2ccc(N3CCCCCC3)cc2)C(=O)NC1=S (configuration not stated) | inconclusive: 56.2 µM [inhibitor, partial curve, poor fit] | 
5 | N#CSCC(=O)N1c2ccccc2CCc2ccccc21 | inconclusive: 44.7 µM [inhibitor, partial curve, poor fit] | 
6 | COc1cccc(N2C(=O)NC(=O)/C(=C\c3ccc([N+](=O)[O-])s3)C2=O)c1 | inconclusive: 44.7 µM [inhibitor, partial curve, poor fit] | 
7 | Cc1ccc(-c2[nH]nc3c2C(c2ccccc2OC(=O)N2CCOCC2)C(C#N)=C(N)O3)cc1 (configuration not stated) | inconclusive: 17.8 µM [inhibitor, full curve, poor fit] | 
8 | O=C(CSC1c2ccccc2-c2ccccc21)N/N=C/c1ccccc1C(=O)O | inconclusive: 79.4 µM [inhibitor, partial curve, poor fit] | 
9 | CN1CC(C(=O)c2ccccc2)C(c2ccccc2)C1 (configuration not stated) |  | inactive: 3.63%
10 | Cc1cc(C)c2c(c1)NP(=S)(c1ccccc1)N2 (configuration not stated) | inconclusive: 79.4 µM [inhibitor, partial curve, poor fit] | 
11 | Cc1ccc(OCCn2cccc2/C=C2/C(=O)NC(=O)N(Cc3ccco3)C2=O)cc1 | inconclusive: 56.2 µM [inhibitor, partial curve, poor fit] | 
12 | CN1C2CCC1CC(OC(=O)c1cc(Cl)cc(Cl)c1)C2 (configuration not stated) | active: 29.9 µM | 
13 | CC(=O)O[C@@H]1CN2CCC1CC2 |  | inactive: 82.9% [at 56.9 µM]
14 | O=C1NC(=O)N(Cc2ccco2)C(=O)/C1=C\c1ccc(-c2ccc(F)cc2)o1 | inconclusive: 31.6 µM [inhibitor, full curve, poor fit] | 
15 | COc1cc(C=C2C(=O)NC(=O)NC2=O)ccc1O | inconclusive: 56.2 µM [inhibitor, partial curve, poor fit] | 
16 | CCN1C(=O)C(=Cc2ccc(C)s2)C(=O)N(CC)C1=S | inconclusive: 35.5 µM [inhibitor, full curve, poor fit] | 
17 | N#CC(C#N)=NNc1ccc(-n2ccc(C(F)(F)F)n2)cc1 | inconclusive: 79.4 µM [inhibitor, partial curve, poor fit] | 
18 | O=C1NC(=O)N(c2cccc(Cl)c2)C(=O)/C1=C\c1ccc(Sc2nc3ccccc3[nH]2)o1 | inconclusive: 79.4 µM [inhibitor, partial curve, poor fit] | 
19 | COCCOC(=O)c1c(N)n(Cc2ccco2)c2nc3ccccc3nc12 |  | inactive: -52.2%

Row | Compound | Potency | activity change, negative = inhibition
20 | C=CCn1c(CSc2ccccc2[N+](=O)[O-])n[nH]c1=S | inconclusive: 50.1 µM [inhibitor, partial curve, poor fit] | 
21 | CN(C)c1ccc(C=C2C(=O)NC(=O)NC2=O)cc1[N+](=O)[O-] | inconclusive: 31.6 µM [inhibitor, full curve, poor fit] | 
22 | CCC(=O)OC1(c2ccccc2)CCN(C)CC1C (configuration not stated) | inconclusive: 44.7 µM [inhibitor, partial curve, poor fit] | 
23 | C[N+]1(C)C2CCC1CC(OC(=O)c1c[nH]c3ccccc13)C2 (configuration not stated) | inconclusive: 4.74 µM [inhibitor, full curve] | 
24 | O=C(CCN1CCN(c2ccccc2)CC1)c1ccc(Br)cc1 | inconclusive: 50.1 µM [inhibitor, partial curve, poor fit] | 
25 | O=C1NC(=O)N(Cc2ccccc2)C(=O)/C1=C\C=C\c1ccco1 | inconclusive: 25.1 µM [inhibitor, full curve, poor fit] | 
26 | COc1ccc(/C=C2\C(=O)NC(=O)N(CCC3=CCCCC3)C2=O)c(OC)c1 | inconclusive: 56.2 µM [inhibitor, partial curve, poor fit] | 
27 | CCOP1(=S)Oc2cc3c(cc2C(C(=O)OC)(C(F)(F)F)O1)OCO3 (configuration not stated) | inconclusive: 17.8 µM [inhibitor, full curve, poor fit] | 
28 | CCN(CC)CCOC(=O)c1cc2cc(COC)ccc2o1 | inconclusive: 89.1 µM [inhibitor, single point] | 
29 | COc1ccc(CCn2c(O)c(C=NCCN3CCCCC3)c(=O)[nH]c2=O)cc1OC | inconclusive: 89.1 µM [inhibitor, single point] | 
30 | C=C1C([C@@H](O)C[C@H](C)C2O[C@@]3(CCCCO3)CC[C@H]2C)OC2CC[C@@]3(CC[C@@H](/C=C/[C@@H](C)C4CC(C)=C[C@]5(O4)O[C@H](C[C@@](C)(O)C(=O)O)CCC5O)O3)OC2[C@@H]1O (some centres not stated) | inconclusive: 0.0377 µM [inhibitor, full curve, poor fit] | 
31 | CCN(CC)P(=O)(NC(=O)C(Cl)(Cl)Cl)N(CC)CC.[Cl-].[Cl-].[Cl-].[Nd+3] | inactive and inconclusive: 89.1 µM [inhibitor, single point] | 
32 | COc1cc2oc(=O)c(CC(=O)N3C[C@H]4C[C@@H](C3)c3cccc(=O)n3C4)c(C)c2cc1Cl |  | inactive: -1.63%
33 | Clc1ccc(COC(Cn2ccnc2)c2ccc(Cl)cc2Cl)c(Cl)c1 (configuration not stated) | inconclusive: 89.1 µM [inhibitor, single point] | 
34 | CCCOc1ccc(C(C)=O)cc1Cc1c(O)[nH]c(=S)[nH]c1=O | inconclusive: 17.8 µM [inhibitor, full curve, poor fit] | 
35 | CCCCC/C=C\C/C=C\C/C=C\C/C=C\CCCC(=O)NCC(=O)O | inconclusive: 16.8 µM [inhibitor, partial curve, poor fit] | 
36 | COC(=O)CCC(=O)Nc1sc(Cc2ccccc2)c(C)c1C(N)=O | inconclusive: 39.8 µM [inhibitor, partial curve, poor fit] | 
37 | O=c1[nH]c(=S)n(Cc2ccco2)c(O)c1C=NCc1cccs1 | inconclusive: 17.8 µM [inhibitor, full curve, poor fit] | 
